± gives the uncertainty stated by the source. Over roughly 9,900 compounds, “viability index relative to DMSO control” has its median near 1; the lowest 2% begin near 0.85. This is one part of the list.

The results in this text go back to the supplement of paper PMC4723716.

This test has as its system Plasmodium falciparum NF54 stage V gametocytes. Description: viability index relative to DMSO control (fraction); higher = less gametocyte killing. The note with it: 2.5 µM, library set: Broad Institute DOS, incubation time: 72 h. In short, it runs like this:
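Viability index is the count of red-stained particles in a well divided by the plate mean of solvent-only wells. Particles of 20–70 µm2 were counted in one imaged field per well after one to two hours with 3 µl of 2.5 µM MitoTracker Red CMXRos and 0.13% saponin. Before staining, P. falciparum NF54 stage V gametocytes in serum-free medium (0.75% gametocytemia, 1.25% hematocrit, 10 µl, 1,536-well plates) were kept with compound at 2.5 µM for 72 hr at 37°C under low oxygen.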
As for `C[C@H]1CN([C@@H](C)CO)C(=O)c2cccc(N(C)C)c2O[C@H]1CN(C)C(=O)Nc1ccc(F)cc1`, the viability index stood at 0.966 ± 0.053.

Turning to `C[C@H](CO)N1C[C@H](C)[C@H](CN(C)C(=O)CCCN(C)C)OCCCC[C@H](C)Oc2ccc(NC(=O)Nc3ccc4c(c3)OCO4)cc2C1=O`, the viability index came to 1.04 ± 0.034. The value for `C[C@@H]1CN([C@H](C)CO)C(=O)c2c(c3ccccc3n2C)-c2ccccc2CO[C@H]1CN(C)C(=O)Nc1ccc2c(c1)OCO2` was 0.941 ± 0.06. For the compound `COCC(=O)N(C)C[C@H]1[C@@H](c2ccccc2)[C@H](CO)N1C(=O)Cc1ccncc1`, the viability index came to 1.074 ± 0.0017. For `O=C(C[C@H]1C[C@H]2c3cc(NC(=O)c4ccc5c(c4)OCO5)ccc3O[C@H]2[C@@H](CO)O1)NCCN1CCCCC1`, the viability index amounted to 1.08 ± 0.037. The result for `CC(=O)N1[C@H](CN(C)S(=O)(=O)c2ccccc2)[C@H](c2ccccc2)[C@@H]1CO` reads 1.02 ± 0.065. The value for `O=S(=O)(NC[C@H]1[C@H](c2ccccc2)[C@H](CO)N1CC1CC1)c1ccccc1` was 1.02 ± 0.16; that for `CCS(=O)(=O)N1C[C@@]2(C1)CN(C)[C@H](CO)c1c2c2ccc(OC)cc2n1C` was 1.04 ± 0.072. The compound `O=C(C1CCOCC1)N1CC(=O)N2[C@@H](CO)[C@H](c3ccc(C#CCc4ccccc4)cc3)[C@@H]2C1` had a viability index of 1.084 ± 0.0042. For the compound `CC(=O)N(CC1CCC1)C[C@H]1N[C@H](CO)[C@@H]1c1ccc(C2=CCCC2)cc1`, the viability index stood at 0.987 ± 0.059. Regarding `COc1cccc(NC(=O)C[C@H]2CC[C@H]3[C@@H](COc4ccc(NS(=O)(=O)c5cccc(F)c5)cc4C(=O)N3C)O2)c1`, the viability index was 1.147 ± 0.003. `O=C(NC1CCCC1)[C@H]1[C@H](CO)[C@H]2Cn3c(cccc3=O)[C@@H]1N2C(=O)CC1CC1`: the viability index worked out at 1.05 ± 0.051. Compound `COCC(=O)N1C[C@@]2(C1)CN(Cc1ccccc1F)[C@H](CO)c1[nH]c3cc(OC)ccc3c21` registered a viability index of 0.986 ± 0.11.

`OC[C@H]1[C@@H](c2ccc(Br)cc2)[C@H]2CNCCCCN21`: the viability index stood at 1.01 ± 0.06.

In turn, `COc1cccc(S(=O)(=O)N2C[C@H](O)COC[C@@H]3O[C@H](CC(=O)NCCCN4CCOCC4)CC[C@H]32)c1` displayed a viability index of 1.13 ± 0.012.

In turn, `Cc1noc(C)c1S(=O)(=O)N(C)C[C@H]1OCCCC[C@H](C)Oc2ccc(NC(=O)CCC(F)(F)F)cc2C(=O)N([C@H](C)CO)C[C@@H]1C` showed a viability index of 1.13 ± 0.054. `C[C@@H]1CN([C@H](C)CO)C(=O)c2cc(NC(=O)Nc3ccccc3)ccc2O[C@H]1CN(C)Cc1ccccc1`: the viability index worked out at 1.03 ± 0.049.

The compound `CCc1cnc(N2[C@@H](C#N)[C@@H](c3ccc(C#Cc4ccccc4F)cc3)[C@@H]2CO)s1` yielded a viability index of 1.08 ± 0.056. The result for `C[C@@H]1CN([C@H](C)CO)C(=O)c2cc(NC(=O)Cc3ccccc3)ccc2O[C@@H](C)CCCCO[C@@H]1CN(C)Cc1ccncc1` reads 1.13 ± 0.062.
